About 620 (0.23%) of roughly 270,000 compounds were called active. This list was built around the results that the source calls inconclusive (neither active nor inactive); the mix of calls is not that of the screen. Calls come from the whole dose curve; as a rule, active = well fitted inhibition curve with a large enough effect in the polarisation, with a control signal flat (not every such curve was filed as active); inconclusive = small, poorly fitted or top-dose-only effect, or effect the other way, or a change in a side signal; inactive = no such curve, though single readings can be large or run the other way; the % refers to the polarisation. Potencies of inconclusive entries are doubtful fits and often do not repeat. A note “side channel” means that the fit belongs to a control or component signal, not to the main read-out.
target: Menin (Homo sapiens) (UniProt O00255); assay: qHTS Assay for Inhibitors Targeting the Menin-MLL Interaction in MLL Related Leukemias: Competition With Texas Red Labeled MLL-derived Mutant Peptide; settings: fluorescence polarization; FP activity change, negative = inhibition: at 61.6 µM (top of the series); for FP activity change, negative = inhibition: % of control where 0% means no effect
Potency is the fitted concentration of half-maximal effect; tags give direction and shape of the fitted curve or compound fluorescence and quenching.

Chain of UniProt O00255 (O00255 whole entry, looked up): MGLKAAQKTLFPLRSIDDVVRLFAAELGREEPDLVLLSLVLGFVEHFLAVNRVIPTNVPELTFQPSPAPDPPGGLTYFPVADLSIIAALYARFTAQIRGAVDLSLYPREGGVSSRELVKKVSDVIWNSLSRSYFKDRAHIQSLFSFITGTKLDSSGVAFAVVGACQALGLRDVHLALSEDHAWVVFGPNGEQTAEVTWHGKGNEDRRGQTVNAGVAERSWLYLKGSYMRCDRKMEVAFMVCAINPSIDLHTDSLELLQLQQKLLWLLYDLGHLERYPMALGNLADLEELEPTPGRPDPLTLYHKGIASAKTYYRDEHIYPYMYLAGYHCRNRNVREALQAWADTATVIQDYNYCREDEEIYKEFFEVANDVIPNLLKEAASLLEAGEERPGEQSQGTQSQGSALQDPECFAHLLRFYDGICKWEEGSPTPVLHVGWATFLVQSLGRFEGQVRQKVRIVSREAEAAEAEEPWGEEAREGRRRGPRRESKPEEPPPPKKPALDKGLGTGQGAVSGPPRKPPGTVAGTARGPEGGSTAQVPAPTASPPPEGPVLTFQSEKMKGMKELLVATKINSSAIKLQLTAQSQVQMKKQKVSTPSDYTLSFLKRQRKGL

Compound | Potency | FP activity change, negative = inhibition
COCC(=O)N(Cc1cc2cc(C)ccc2[nH]c1=O)c1cccc(C)c1C | inconclusive: 3.16 µM [inhibitor, full curve, poor fit] | –
COc1cc2c(cc1OC)C(c1ccc(-c3ccc(Cl)cc3Cl)o1)=NCC2 | inconclusive: 11.2 µM [fluorescent, side channel, partial curve] | –
CCCCCc1nc2sc3c(c2c(=O)n1NC(=O)c1ccc([N+](=O)[O-])cc1)CC(C)(C)OC3 | inconclusive: 31.6 µM [quencher, side channel, partial curve] | –
Cc1ccc(N/C=C/C(=O)C(C)(C)C)c(O)c1 | inactive | –
CCN(CC)CCCN(C(=O)c1ccco1)c1nc(-c2ccc(C)cc2)cs1 | inconclusive: 11.2 µM [fluorescent, side channel, partial curve] | –
CCC1=NN(C(=O)C(=O)Nc2ccc(Br)cc2)C(O)(C(F)(F)F)C1 (stereo not given) | inconclusive: 17.8 µM [quencher, side channel, partial curve] | –
CCCNC(=O)OC[C@@H]1O[C@H](CCO/N=C(\C)CCN2CCCc3nc(C)c(C)cc32)C=C[C@@H]1Oc1ccc(OC)cc1 | – | inactive: -14.2% [at 11.7 µM]
Cc1cc(C)nc(Nc2ccc(O)cc2)n1 | inactive | –
C/C(CC(=O)Nc1ccccn1)=N\NC(=O)C(=O)Nc1cccc(Cl)c1C | inconclusive: 35.5 µM [inhibitor, single point] | –
COc1ccc(OCC(=O)NNc2c3ccccc3nc3ccccc23)cc1 | inconclusive: 25.1 µM [quencher, side channel, single point] | –
CCOc1ccc(S(=O)(=O)Nc2ccc(C(=O)NCC(c3ccco3)N(C)C)cc2)cc1 (stereo not given) | inconclusive: 39.8 µM [inhibitor, single point] | –
O=C(C1=C[C@H](c2ccc(Br)cc2)C[C@H](OCCCCO)O1)N1CCN(Cc2ccc3c(c2)OCO3)CC1 | inconclusive: 2 µM [fluorescent, side channel, full curve, poor fit] | –
Cc1cc(NC(=O)CSc2nc3c(C)ccc(C)c3cc2C#N)no1 | inconclusive: 31.6 µM [fluorescent, side channel, single point] | –
CS(=O)(=O)Nc1cccc(C2=NN(S(=O)(=O)c3ccccc3)C(c3ccco3)C2)c1 (stereo not given) | inconclusive: 35.5 µM [quencher, side channel, single point] | –
Cc1ccccc1OCc1nc(-c2ccc(NC(=O)c3cccs3)cc2)no1 | inconclusive: 3.98 µM [quencher, side channel, partial curve] | –
CCN(CC)S(=O)(=O)c1ccc(C)c(NC(=O)Cn2cnc3cc([N+](=O)[O-])ccc3c2=O)c1 | inconclusive: 28.2 µM [quencher, side channel, partial curve] | –
CN(C)c1ccc(/C=N/NC(=O)c2cnc3ccccc3c2)cc1 | inconclusive: 35.5 µM [quencher, side channel, single point] | –
CC1Oc2ccccc2N(CC(=O)N(Cc2ccccc2)Cc2ccccn2)C1=O (stereo not given) | inconclusive: 39.8 µM [inhibitor, partial curve] | –
O=C(OC1Cc2c(O)cc(O)cc2OC1c1cc(O)c(O)c(O)c1-c1c(C2Oc3cc(O)cc(O)c3CC2OC(=O)c2cc(O)c(O)c(O)c2)cc(O)c(O)c1O)c1cc(O)c(O)c(O)c1 (stereo not given) | inconclusive: 31.6 µM [quencher, side channel, single point] | –
NC(N)=Nc1nc(-c2ccccc2)c2ccccc2n1 | inconclusive: 2 µM [fluorescent, side channel, full curve] | –
Cc1ccc(C)c(N(C(=O)Cc2cccs2)C(C(=O)NC2CCCC2)c2ccc(C)o2)c1 (stereo not given) | inconclusive: 2.51 µM [fluorescent, side channel, partial curve] | –
CC[n+]1c(C)sc2c(C)cc(C)cc21 | inactive | –
CC1=C(C#N)C(=O)NC(=O)/C1=C\c1ccc(-c2ccc(C)cc2[N+](=O)[O-])o1 | inconclusive: 17.8 µM [quencher, side channel, partial curve] | –
COc1ccccc1CN1C[C@@H]2C[C@@H](c3cccc(C)c3)N3CCC[C@@]23C1=O | inconclusive: 10 µM [fluorescent, side channel, partial curve] | –
CCOc1ccc(NC(=O)CN2CCN(CC(=O)Nc3ccc(C(=O)OC)cc3)CC2)cc1 | inactive | –
COC(=O)c1ccc2c(c1)C(C)(C)C(/C=C/c1ccccc1O)=[N+]2C | inconclusive: 5.62 µM [inhibitor, single point] | –
COC(=O)c1ccccc1S(=O)(=O)N1CCc2nc(-c3ccc(OC)cc3C)c3c(c2C1)CO[C@@H](c1ccccc1)C3 | – | inactive: -6.01% [at 11.7 µM]
O=C(c1cccc(Cl)c1)C1CCCN(Cc2ccc(N3CCNC3=O)cc2)C1 (stereo not given) | inconclusive: 10 µM [fluorescent, side channel, full curve, poor fit] | –

Compound | Potency | FP activity change, negative = inhibition
CCOC(=O)c1c(-c2ccc(C)o2)csc1NC(=O)CN1CCOCC1 | inactive | –
COc1cccc(CC2(CO)CCN(Cc3cnc(-c4cccc(C)c4)nc3)CC2)c1 | inconclusive: 20 µM [fluorescent, side channel, single point] | –
O=C(Nc1cccc(Br)c1)c1cc2ccccc2o1 | inconclusive: 22.4 µM [quencher, side channel, partial curve] | –
COc1cc(/C=N/NC(=O)CCOc2ccccc2C)cc(Br)c1O | inconclusive: 39.8 µM [quencher, side channel, single point] | –
CC1CCCCN1c1nnc(N)s1 (stereo not given) | inconclusive: 3.55 µM [inhibitor, partial curve] | –
Cc1nc(NC(=O)c2ccccc2)sc1-c1csc(NCc2ccccc2)n1 | inconclusive: 12.6 µM [quencher, side channel, partial curve] | –
CCc1ccc(S(=O)(=O)Nc2cc3c(cc2N2CCCCC2)n(C)c(=O)c(=O)n3C)cc1 | inconclusive: 39.8 µM [inhibitor, partial curve, poor fit] | –
c1ccc(Nc2ncnc3ccc(-c4ccoc4)cc23)cc1 | inconclusive: 25.1 µM [quencher, side channel, single point] | –
CCOC(=O)C(C)c1c(C(=O)c2ccc(C)nc2)c2ccccc2n1C (stereo not given) | inconclusive: 22.4 µM [fluorescent, side channel, partial curve] | –
CCOC(=O)c1ccc(-n2[nH]c(-c3ccccc3)cc2=O)cc1 | inconclusive: 8.91 µM [quencher, side channel, partial curve] | –
COc1cc(/C=N/Nc2ccc(C(F)(F)F)cn2)ccc1O | inconclusive: 14.1 µM [quencher, side channel, partial curve] | –
O=C(Nc1cccc(Cl)c1)ON=C1c2ccccc2-c2ccccc21 | inconclusive: 39.8 µM [quencher, side channel, single point] | –
COc1ccc(NC(=O)COC(=O)CCCOc2ccc(Cl)cc2Cl)cc1 | inconclusive: 39.8 µM [quencher, side channel, single point] | –
O=C1C2=CC[C@H]3C(=O)N(C4CCCCC4)C(=O)[C@@H]3[C@@H]2[C@H](O)[C@@H]2O[C@H]12 | – | inactive: 12.3% [at 11.7 µM]
O=C(NCc1ccccn1)C1C2C=CC(C2)C1C(=O)Nc1ccc(F)cc1 (stereo not given) | inconclusive: 8.91 µM [inhibitor, single point] | –
CN(C)c1ccc(/C=N/N=C2/SC(CC(=O)O)C(=O)N2c2ccc(O)cc2)cc1 (stereo not given) | inconclusive: 31.6 µM [quencher, side channel, partial curve] | –
COc1ccccc1N(CC(O)Cn1nc(C)cc1C)S(=O)(=O)c1ccccc1 (stereo not given) | inconclusive: 31.6 µM [fluorescent, side channel, partial curve] | –
CCc1ccc(S(=O)(=O)/N=C2\C=C(Nc3ccc(C(=O)O)cc3)C(=O)c3ccccc32)cc1 | inconclusive: 17.8 µM [quencher, side channel, partial curve] | –
COC(=O)c1cn(C(=O)OC)c2ccccc12 | inconclusive: 39.8 µM [inhibitor, single point] | –
O=c1c(-c2cccs2)nc2cnc(Nc3ccccc3)nc2n1C[C@H]1CCCO1 | inconclusive: 2.82 µM [quencher, side channel, full curve] | –
Cc1sc(-n2c(C)cc(/C=C3\SC(=S)NC3=O)c2C)c(C#N)c1C | inconclusive: 20 µM [quencher, side channel, partial curve] | –
COC1=C(Nc2ccc(O)cc2)C(=O)c2ccccc2C1=O | inactive | –
CCNC(=S)NNC(=O)c1cc(-c2ccc(OCC)cc2)nc2ccccc12 | inconclusive: 2 µM [quencher, side channel, full curve] | –
O=C(Nc1ccc(NC(=O)c2cccs2)cc1Cl)c1ccco1 | inconclusive: 15.8 µM [quencher, side channel, partial curve] | –
COc1ccc(-c2csc(-c3ccccc3)n2)c(OC)c1 | inconclusive: 28.2 µM [quencher, side channel, partial curve] | –
CCCc1cc(=O)oc2cc(OCC(=O)Nc3ccc(S(N)(=O)=O)cc3)ccc12 | inconclusive: 35.5 µM [fluorescent, side channel, single point] | –
O=C(c1ccccc1)c1ccc(OC(=O)N2CCOCC2)cc1 | inconclusive: 3.55 µM [fluorescent, side channel, single point] | –

Source: PubChem BioAssay AID1768 (National Center for Advancing Translational Sciences (NCATS), 2009)
